In all, about 4,500 sequences were measured (“median log2 fold change of GCK-ALFA target abundance (FLAG IP / Myc IP barcode read proportion)”: median about 0.078, lowest 2% from about -0.6 on). The list shows a part of the results.
B1: GBRAP_150_3901 (protein)
chain: DLEELLTLVSTAIDLLEAILDGEYSLLPHAIKVLKAALEESKEISEEVKELAEKALEEAEKAKKLLEEGGEQKEIDEAVKKALELAEKLEKLIEELIKKK
B2: GBRAP_128_3343 (protein)
chain: VDEEKLEEIEEIAKAMIEADDETAKKLAKELMEKLVELSLEEVEKAAEIIKELLPELSAEHLEILADELREYRPKFSPEKALIVNELEVEALNEAVEKEE
B3: GBRAP_137_3626 (protein)
chain: ATVHITVEHYEDVVRITVRLEDAELAEAVAELVLDVAHEHGALAVSIELEEDGSLVAEIWVPRDRAQALLDALVRALTEELGLTVVVTDADTGETRTYRP
B4: GBRAP_11_2791 (protein)
chain: KKELLKKLAELLEKAAELLEQLLASSPDDKELWKKTKELLEKAKKLAKEAGDETTAELLEYAKEDLEKAQADPENRQEYLQRALALVRTAKGLVLLDIEE
B5: GBRAP_128_3494 (protein)
chain: STEAAVARTRALMAAIGEADEETAAALTREWVELLAAADPETREAMVAVAEERLPELDAEKLEVIADTLREAQPSLDPETANLVAGLQVEALNAAVEKEE
B6: GBRAP_26_5448 (protein)
chain: IEEKLKELLEALKALADELADPELAALLKTEFDNIIALAELELEEAEGDKEKQLKVVEDMKKDILEAAKDLGVPADTLAKIEKVLEEQTKKIKEEIKKLE
B7: GBRAP_78_6709 (protein)
chain: EVEELLEKAIEHLNEAAKLLVKVGTELANEALGHLVDAMTYLWEAIEEGADLELLEKAKEELEKAIELAKKLDVPEKEEILKHLEEALKLVKEAIKLVKK
B8: GBRAP_128_3354 (protein)
chain: LDEAFLARVRATVEEMLTADVETVYELTKALVAEISKASDEEKDAAFAILEEALPKFDAEKLEAIADAIEEQLPTLDEYTANLAAGVLVEALNLAEEKEE
B9: GBRAP_160_4514 (protein)
chain: SETLKRILELIEEARKRIIEVLDEGDVEAAIVTADVEFGEVIMELAEDESASDEAVDAAAKIRDELVARLRAARDASVEERKAIVEEAAKKLKEELKKLF
B10: GBRAP_52_6023 (protein)
chain: MRERLRAAVRELLALVKAGREEEARRAARELVESLDEEELELLVEALAELAAEAPPEDADAVWRLAEIVAEALEEAGRDEVLADDLEARVAAALYAALQR
B11: GBRAP_160_4004 (protein)
chain: SEKIEKLIKEIEELVEETIEWMEGLSPEERLTLVRGTVGEIIQLAIESEEVSDESEEKIAELGDETIERVEENKDASLEVWKEILEEFLEKVKKILKEDE
B12: GBRAP_160_4659 (protein)
chain: SPEIEKLKEEIKEIFDEAIEMVKGQTHEERVAVARVAVGDIILEMEESEEVSEEAVDEVDEIGRELVATLEANPDFTDEEVEALIKEALEKVLKVLEKHS
B13: GBRAP_128_3551 (protein)
chain: SVEAAVARVRELLERMKTASPEEARELAEELAAHLASLSPEARAAAVAEILERLPELSVEHLEILADVFREQRPKLDPETAEAAAEIEVEALNIAEEKEE
B14: GBRAP_150_3892 (protein)
chain: NKELALLLAEELLDLLELTLELGVDLLPQALKVAEHLLEEAKELTEELKEKAEKILKLVKEAAKLAKKGGKEEEIKKKLEEAKKLAEELIKELKKLIEEE
B15: GBRAP_128_3409 (protein)
chain: STEEKVKKAKELLEKMLTADEEEQKKLAEELAELLLESDLETVKKIVEVILEMLPKFTAEQLDILADVLREKLDKFTPEKQELVSEVIVEALNEAEELEE
B16: GBRAP_184_5225 (protein)
chain: TVVREAVEAETAEELIAKAEAVVAAAQAAGKELVLYAFGRGLSLEEVERVAAHLAALKAAGRVKDATLVVEDERTEEEVDELVAIADRHGVRLVVALRDE
B17: GBRAP_125_2988 (protein)
chain: SEEQALEDLARVLRALGFSDEDVAEAVELARRHGLRGTLYAAMLALGYDELAELVAKLTEEETREVLAAVAAYLEAHPDATPEEVIAKLTEVAKAALAKR
B18: GBRAP_128_3383 (protein)
chain: VDEEKLAKVREMVEAMVKASVEEVRKLTEEFVAFLTTLTPEEQEAAVAIAEEMLPKLSKEKLDVVADVIEEKMPSLDEYTANLLAGLQVEALNQAVELEE
B19: GBRAP_52_6024 (protein)
chain: MREELRRRVEELLELVKAGREEEARAAARELVASLNEEELELLIEELAELARAARPEDAEAVWRLTEIIAEALEEAGVDEVLADELEARVAAALYEALQR
B20: GBRAP_26_5454 (protein)
chain: IEEAIDKAEERLLALADEVLDPEKAAALKTEILTEFEEIKEVVEAHPDDAEKIKAAVDEAVKDIKEMMDKLGVPEEAREKLTKALDEEAAKIKAAIDAAA
B21: GBRAP_43_5746 (protein)
chain: DEELVEGALDLAILMAEDPSIPEETKLKAFKAAVDLIADTGIKKTELLIEMVRALAANSSEETVKEALAHLKEKAAKSEKTKETFDAAIKALEAALAARK
B22: GBRAP_160_4041 (protein)
chain: SEKYEKLKEFAKKEFEEAKEFVEGQTVEQAANIVDVTFGNIIIEAEELGIDDEELLDKIAEIGDEAVAKLLANPNLTEEEVKEIIKEAEEKVLKAIEEAK
B23: GBRAP_184_5191 (protein)
chain: KVLEYTLKAKNLEEVKEKMKELIELAKKEKADLYLIVELEEVTEEMIKAIMEALKEIKEKGYSKNITVLLEGKMTEEQIDLALKLADEAGVKLTIALDEE
B24: GBRAP_160_4068 (protein)
chain: SEEIEKLKEEIEEIFEEAIEMMKGQSHEERVTIARVMKGEVVMLLFENESVSDEAIDEADKIMDELVATIAANPDLTDEEIEELIEEAKEKIFEVLEKKS
B25: GBRAP_52_6210 (protein)
chain: MREEARALAEELLALMKAGDREGARALARRIAEEWNEEELKIFAEEFVKLAREAAPEDFDLVFELAELIAEELLKEGRDEVLADDLLNSVAAALYEREQA
B26: GBRAP_184_5347 (protein)
chain: MVAHLTVTREEWREDREGVLERVRELLKDPNVDTLVVSLEDLSFEEAKELLEEIGEIAKELGAKNVIVHVDSDLNEEEIDELIEIADKYGVRLVISIPEE
B27: GBRAP_137_3610 (protein)
chain: AKATVTVKEYEDVVEITVKVEDPEIAEKVEEELLDIAHEVGALAVSSEKKEDGSLEIEIWVPKEKAEELLKKVIELLKKVADVTLIKELPGKTEVEEIKK
B28: GBRAP_52_6005 (protein)
chain: MREALRAQVRAALALVRAGDLDAARAAIRALVAALNEEEVRLLVEAVAELAREAPVEDADAVWRLAELLAAALEEAGYDEALADELLARVAAALYEREQR
B29: GBRAP_125_3109 (protein)
chain: SEDELLAALRALARALGFSEEEAEEAAELARRFSLRQTLYAIFLAEGEEELADLVEQLTEEQARAALAALAAWLAAHPDATKEEVLAQARAILEAELARA

Molecular target: GABARAP, O95166
Sequence (O95166 whole entry, the tested form may be a part): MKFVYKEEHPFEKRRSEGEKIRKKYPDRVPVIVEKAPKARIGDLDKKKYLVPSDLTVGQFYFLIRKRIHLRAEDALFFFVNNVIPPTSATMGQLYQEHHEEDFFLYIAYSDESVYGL
Assay: median log2 fold change of GCK-ALFA target abundance (FLAG IP / Myc IP barcode read proportion) (log2 ratio); each designed protein is fused to an ALFA-tag nanobody in HEK293 cells to bring the named protein to FLAG-tagged glucokinase (GCK); Myc marks an untargeted standard; higher = target protein stabilised (more abundant)
Details: target protein: 3xFLAG-MCP-GCK-ALFA reporter; HEK293 landing pad (RPLP)
Method in brief: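 Binders fused to an ALFA nanobody were recombined as a library into HEK293 landing-pad cells, which were induced with 2 μg mL^−1 doxycycline and then transfected to express a FLAG-tagged target and a Myc-tagged standard. After 48 h, circular RNA barcodes recovered by anti-FLAG and anti-Myc immunoprecipitation of lysates were reverse transcribed, amplified and sequenced. Each binder's target abundance is the median log2 ratio of FLAG to Myc barcode read proportions, from barcodes present at ≥10^−7 in both replicates, binders carrying ≥3 barcodes per replicate, a 10^−6 pseudocount and pooled replicates.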

Binder | median log2 fold change
B1 | 0.384
B2 | 0.185
B3 | -0.178
B4 | 0.0469
B5 | 0.441
B6 | -0.104
B7 | 0.0714
B8 | 0.0761
B9 | 0.229
B10 | -0.0573
B11 | -0.827
B12 | 0.112
B13 | 0.304
B14 | -0.0674
B15 | 0.298
B16 | -0.0185
B17 | 0.0759
B18 | 0.206
B19 | -0.169
B20 | 0.241
B21 | 0.165
B22 | -0.0514
B23 | 0.103
B24 | -0.101
B25 | 0.029
B26 | 0.025
B27 | 0.184
B28 | 0.108
B29 | -0.77

— the supplement of paper PMC12632987
